# According to PMC6919601, “Identification of Plasmodium dipeptidyl aminopeptidase allosteric inhibitors by high throughput screening” (PLoS ONE, 2019):
# In all, about 110,000 compounds went through this assay and about 230 (0.21%) showed an effect of 50% or more. This is one part of the list.
# Target: DPAP1 (Plasmodium falciparum, UniProt Q8IIJ9)
# Assay: primary screen, percent inhibition; read by cleavage of a fluorogenic dipeptide substrate; higher = more effect of the substance
# Set-up: species or system P. falciparum D10 trophozoite lysates; single well
# 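Also: 30 min substrate incubation versus DMSO and 10 µM JCP410 controls.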
# Chain of DPAP1 (Q8IIJ9 whole entry, looked up): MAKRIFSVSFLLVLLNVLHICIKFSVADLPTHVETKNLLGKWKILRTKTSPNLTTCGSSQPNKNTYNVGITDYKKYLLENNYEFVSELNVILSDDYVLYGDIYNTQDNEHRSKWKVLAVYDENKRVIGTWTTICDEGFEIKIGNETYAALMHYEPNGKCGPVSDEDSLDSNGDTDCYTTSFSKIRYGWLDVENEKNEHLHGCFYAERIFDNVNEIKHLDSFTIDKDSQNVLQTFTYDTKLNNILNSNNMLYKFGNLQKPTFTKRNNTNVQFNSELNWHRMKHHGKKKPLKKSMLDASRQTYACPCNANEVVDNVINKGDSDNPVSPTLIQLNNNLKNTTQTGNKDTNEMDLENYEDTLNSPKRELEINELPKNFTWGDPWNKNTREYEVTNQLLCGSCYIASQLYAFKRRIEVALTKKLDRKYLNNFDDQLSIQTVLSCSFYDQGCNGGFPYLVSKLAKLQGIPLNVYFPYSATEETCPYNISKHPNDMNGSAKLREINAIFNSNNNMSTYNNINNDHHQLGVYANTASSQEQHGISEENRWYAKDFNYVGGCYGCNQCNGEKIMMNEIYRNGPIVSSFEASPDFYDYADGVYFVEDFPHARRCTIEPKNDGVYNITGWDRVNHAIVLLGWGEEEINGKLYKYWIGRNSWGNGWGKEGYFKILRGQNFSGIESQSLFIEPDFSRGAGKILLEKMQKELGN
row,Structure (SMILES),% Inhibition @ 10 uM [%]
1,CCOC(=O)c1sc(NC(=O)c2ccc(Cc3ccccc3)cc2)nc1C,6.51
2,O=C(Nc1ccccc1F)c1ccccc1C(=O)Nc1ccccc1F,9.41
3,CCC1CCCCN1S(=O)(=O)c1ccc(C(=O)Nc2nnc(-c3cccc(OC)c3)o2)cc1 (stereo not drawn),7.29
4,CC(C)CCNC(=O)C1CCN(c2nn3cc(-c4ccc(F)cc4)nc3s2)CC1,-3.81
5,CCCS(=O)(=O)n1nc(-c2ccccc2)cc1N,1.15
6,C/C(=C\c1ccccc1)CN1CCCC(O)C1 (stereo not drawn),0.472
7,O=C(CCC1CCCCC1)NC1(C(F)(F)F)NC(=O)N(Cc2ccccc2)C1=O (stereo not drawn),-3.33
8,C/C(=C\c1ccccc1)CN1CCC(C(N)=O)CC1,0.217
9,O=C(Nc1ccc(Cl)cc1Cl)c1cnccn1,1.26
10,Cc1ccc(C)n1-c1nnc(N2CCCC(C(=O)N3CCOCC3)C2)s1 (stereo not drawn),2.65
11,CCO/C=N/c1oc(-c2ccccc2)c(-c2ccccc2)c1C#N,3.36
12,Cc1ccc(S(=O)(=O)Nc2ccc(Cl)cc2)cc1,2.8
13,Cc1nc2sc(C#N)c(N)c2c(C)c1C,-0.239
14,Cn1ccc(C(=O)NC2C3CC4CC(C3)CC2C4)n1 (stereo not drawn),-2.17
15,CC1CCC(NCCN2CCOCC2)CC1 (stereo not drawn),-7.11
16,Brc1ccc(OCCCN2CCCCC2)cc1,2.26
17,COc1cc(C)ccc1OCCCCNC1CCCC1,-3.78
18,COc1ccc(OC)c(C2c3[nH]c4ccccc4c3CC3C(=O)N(C)C(=S)N32)c1 (stereo not drawn),12.1
19,CCOc1cc(C2CC(=O)NC(SCC)=C2C#N)ccc1O (stereo not drawn),-7.3
20,Cc1cccc(C(=O)NCc2ccccc2)c1,1.91
21,CC(C)C[C@H](NC(=O)c1cc(-c2ccccc2)no1)C(=O)NCC#N,-5.2
22,COc1ccc(CNC(=O)c2ccc(C/N=c3\c(O)c(O)\c3=N/C3CCCCC3)cc2)cc1,-2.25

row,Structure (SMILES),% Inhibition @ 10 uM [%]
1,O=C(Nc1ccc2c(c1)OCCO2)c1sc2ccccc2c1Cl,-6.18
2,O=C1OC(c2cccc(Br)c2)=N/C1=C\c1cc(Br)cs1,-0.617
3,Cc1cc(F)c(F)cc1C(=O)N1C(C)CCCC1C (stereo not drawn),-4.7
4,COc1ccc(OC)c(/C=C2\SC(=O)N(CC(=O)O)C2=O)c1,2.84
5,CCOC(=O)c1c(S(=O)(=O)N2CCN(c3ncccn3)CC2)c(C)n(C)c1C,0.399
6,CC1CCCCN1C(=O)c1cc2ccc3cccnc3c2[nH]1 (stereo not drawn),-2.35
7,C#CCn1cnc2c(cnn2-c2ccc(C)c(C)c2)c1=O,-0.0309
8,Cc1c(C)n(Cc2ccccc2)c2ccc(C(=O)NC(C)C)cc12,-7.44
9,Cn1c(=O)[nH]c(=O)c2c1nc(Br)n2Cc1ccccc1Cl,-9.4
10,CCC(C)c1ccccc1OCC(=O)Nc1ccc(S(=O)(=O)N2CCC(C)CC2)cc1 (stereo not drawn),-3.26
11,N#CC1(c2ccccc2)CCN(S(=O)(=O)c2cccc3cccnc23)CC1,-3.39
12,Cc1cccc(-c2nc3s/c(=C\c4ccc(C)o4)c(=O)n3n2)c1,-8.79
13,Cc1ccccc1Cn1c(N2CCC(C)CC2)nc2c1c(=O)n(C)c(=O)n2C,-2.13
14,COc1ccc(C2C(C(=O)c3ccccc3)=C(O)C(=O)N2CCN(C)C)c(OC)c1 (stereo not drawn),2.39
15,Cc1cccc(C(=O)OCCN2CCN(C3=NS(=O)(=O)c4ccccc43)CC2)c1,-11.8
16,COc1ccc(S(=O)(=O)Nc2ccccc2C(=O)NCC(C)C)cc1OC,2.95
17,Cc1ccc(-c2csc(/C(C#N)=C\c3ccc(Br)cc3)n2)cc1,0.912
18,O=C(NC1CCCc2ccccc21)c1csc2c1CCCC2 (stereo not drawn),-0.622
19,CC(C)(C)c1ccc(C2C3=C(CCCC3=O)N=C3C2=C(O)c2ccccc23)cc1 (stereo not drawn),-4.51
20,CCCCOc1ccc(N2C(=O)CC(NCc3ccc4c(c3)OCO4)C2=O)cc1 (stereo not drawn),-0.622
21,COc1ccc(C(=O)COC(=O)c2ccccc2)cc1,-0.962
22,O=S(=O)(c1ccccc1)c1ccc(N2CCCCC2)cc1,4.82

row,Structure (SMILES),% Inhibition @ 10 uM [%]
1,Cc1ccc2nc3nc(C)cc(C)c3c(O)c2c1,-3.95
2,COC(=O)/C=C1/OC(c2ccc(Cl)cc2)=CC1=O,-0.687
3,COc1ccc(CNC(=O)c2c(O)nc3c(c2O)CCCC3)cc1OC,5.66
4,O=C1C(c2ccccc2)=NOC12CCCC2,0.00784
5,O=C(NC1CSC(C(=O)O)C1=O)c1ccccc1 (stereo not drawn),-3.66
6,COc1ccc(C(=O)O)cc1COc1ccccc1Cl,0.35
7,O=C(Cc1ccccc1F)Nc1ccc(C(=O)c2ccccc2)cc1,-4.66
8,CCCCN1C(=O)C(NC(=O)CC(C)C)(C(F)(F)F)C2=C1CC(C)(C)CC2=O (stereo not drawn),1.15
9,Cc1ccc(NCc2cccnc2)cc1,1.29
10,CCCC(C)N1CCN(S(=O)(=O)c2cc(-c3onc(C)c3C)ccc2OC)CC1 (stereo not drawn),-1.23
11,CC(C)(CO)NC(=O)CSc1ccc(C(F)(F)F)cc1Cl,-2.24
12,CCN(CC)C(=O)COc1ccc2ccccc2c1Br,2.44
13,COC(=O)N1CC(=O)N(OC)C1c1ccc(Cl)cc1Cl (stereo not drawn),2.92
14,CCOc1ccccc1N1CCN(C(=O)c2c(-c3ccccc3Cl)noc2C)CC1,0.389
15,COc1ccc(-c2cc(C(F)(F)F)nc(S(=O)(=O)CCCC(=O)O)n2)cc1OC,11.6
16,NC(=O)c1c(NC(=O)C(c2ccccc2)c2ccccc2)sc2c1CCC2,-7.93
17,O=C(COc1ccccc1)Nc1cccc2c(NC(=O)COc3ccccc3)cccc12,1.29
18,Cc1ccccc1S(=O)(=O)Cc1ccc(C(=O)NCCCSC2CCCCC2)o1,-1.28
19,Cc1c(C(=O)N2CCN(c3ccc(F)cc3)CC2)cccc1[N+](=O)[O-],-1.64
20,CN1CCN(C(=O)c2ccc3ccccc3c2)CC1,-0.28
21,CC(C)(C)/N=c1/c(-c2ccc(Cl)cc2)c(O)c1=O,-2.56
22,Cn1ncc2c(NC(c3ccccc3)c3ccccc3)ncnc21,-1.27
